Our source for the binding signal (RPM ratio (pull-down/input)) values is PMC12820563.

The other results are listed elsewhere or left out. The list includes weakly bound sequences.

This test deals with T1, MBP-FoxP3dN (UniProt Q99JB6).
T1 sequence: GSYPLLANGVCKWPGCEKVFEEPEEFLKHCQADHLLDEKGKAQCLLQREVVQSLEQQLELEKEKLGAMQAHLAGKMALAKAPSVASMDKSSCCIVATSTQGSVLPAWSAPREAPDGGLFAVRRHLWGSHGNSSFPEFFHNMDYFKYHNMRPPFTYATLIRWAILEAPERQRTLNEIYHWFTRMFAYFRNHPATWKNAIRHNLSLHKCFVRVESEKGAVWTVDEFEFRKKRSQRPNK
Put plainly: PD-seq (MBP pull-down with sequencing). The conditions noted are these: 20 mM Tris-HCl pH 7.5, 100 mM NaCl, 1.5 mM MgCl2, 0.4 uM protein, 0.1 uM dsDNA library, 30 min, room temperature, amylose pull-down; high values mean tight binding; double strand, one strand shown.
As for “GATGATTGTTCTCCCAGCTGATGAATTCGGCGTGTCGAGTAAACAAATTTTCCTAATCTTTCTGTTCAAGCGCCATCTAC”, the binding signal (RPM ratio (pull-down/input)) is 3.73.

Consider “GATGATTGTTCTCCCAGCTGATGAATTAATGGCGTCGAGTAAACAAATTTTCCTAATCTTTCTGTTCAAGCGCCATCTAC”, for which the binding signal (RPM ratio (pull-down/input)) amounted to 0.871.

In the case of “GATGATTGTTCTCCCAGCTGATGAATTCAAGGCATCGAGTAAACAAATTTTCCTAATCTTTCTGTTCAAGCGCCATCTAC”, the binding signal (RPM ratio (pull-down/input)) was found to be 0.603.

Consider “GATGATTGTTCTCCCAGCTGATGAATTTTAGTACTCGAGTAAACAAATTTTCCTAATCTTTCTGTTCAAGCGCCATCTAC”, for which the binding signal (RPM ratio (pull-down/input)) stood at 0.491.

For the sequence “GATGATTGTTCTCCCAGCTGATGAATTATGCCTGTCGAGTAAACAAATTTTCCTAATCTTTCTGTTCAAGCGCCATCTAC”, the binding signal (RPM ratio (pull-down/input)) stood at 5.87.

In the case of “GATGATTGTTCTCCCAGCTGATGAATTGCTAAATTCGAGTAAACAAATTTTCCTAATCTTTCTGTTCAAGCGCCATCTAC”, the binding signal (RPM ratio (pull-down/input)) was determined as 0.592.

Regarding “GATGATTGTTCTCCCAGCTGATGAATTACCATCCTCGAGTAAACAAATTTTCCTAATCTTTCTGTTCAAGCGCCATCTAC”, the binding signal (RPM ratio (pull-down/input)) is 0.431.

For the sequence “GATGATTGTTCTCCCAGCTGATGAATTCAAATGGTCGAGTAAACAAATTTTCCTAATCTTTCTGTTCAAGCGCCATCTAC”, the binding signal (RPM ratio (pull-down/input)) came out at 0.349.

Consider “GATGATTGTTCTCCCAGCTGATGAATTGTGTGAATCGAGTAAACAAATTTTCCTAATCTTTCTGTTCAAGCGCCATCTAC”, for which the binding signal (RPM ratio (pull-down/input)) worked out at 0.7.

With “GATGATTGTTCTCCCAGCTGATGAATTAAGAGATTCGAGTAAACAAATTTTCCTAATCTTTCTGTTCAAGCGCCATCTAC”, the binding signal (RPM ratio (pull-down/input)) was 0.396.

For the sequence “GATGATTGTTCTCCCAGCTGATGAATTCATCCCATCGAGTAAACAAATTTTCCTAATCTTTCTGTTCAAGCGCCATCTAC”, the binding signal (RPM ratio (pull-down/input)) came to 0.384.

Take “GATGATTGTTCTCCCAGCTGATGAATTCATCATATCGAGTAAACAAATTTTCCTAATCTTTCTGTTCAAGCGCCATCTAC”: the binding signal (RPM ratio (pull-down/input)) stood at 0.849.

Turning to “GATGATTGTTCTCCCAGCTGATGAATTCAGCACCTCGAGTAAACAAATTTTCCTAATCTTTCTGTTCAAGCGCCATCTAC”, the binding signal (RPM ratio (pull-down/input)) was 1.04.

On to “GATGATTGTTCTCCCAGCTGATGAATTCTTACTTTCGAGTAAACAAATTTTCCTAATCTTTCTGTTCAAGCGCCATCTAC”, for which the binding signal (RPM ratio (pull-down/input)) was 0.309.

In the case of “GATGATTGTTCTCCCAGCTGATGAATTGCTTGTGTCGAGTAAACAAATTTTCCTAATCTTTCTGTTCAAGCGCCATCTAC”, the binding signal (RPM ratio (pull-down/input)) amounted to 2.01.

For the sequence “GATGATTGTTCTCCCAGCTGATGAATTGTGTCACTCGAGTAAACAAATTTTCCTAATCTTTCTGTTCAAGCGCCATCTAC”, the binding signal (RPM ratio (pull-down/input)) amounted to 4.29.

Turning to “GATGATTGTTCTCCCAGCTGATGAATTAATGCGGTCGAGTAAACAAATTTTCCTAATCTTTCTGTTCAAGCGCCATCTAC”, the binding signal (RPM ratio (pull-down/input)) stood at 1.56.

On to “GATGATTGTTCTCCCAGCTGATGAATTCGAGAGGTCGAGTAAACAAATTTTCCTAATCTTTCTGTTCAAGCGCCATCTAC”, for which the binding signal (RPM ratio (pull-down/input)) stood at 0.213.

For “GATGATTGTTCTCCCAGCTGATGAATTGTAGCGTTCGAGTAAACAAATTTTCCTAATCTTTCTGTTCAAGCGCCATCTAC”, the binding signal (RPM ratio (pull-down/input)) worked out at 1.71.

Regarding “GATGATTGTTCTCCCAGCTGATGAATTACTATGCTCGAGTAAACAAATTTTCCTAATCTTTCTGTTCAAGCGCCATCTAC”, the binding signal (RPM ratio (pull-down/input)) worked out at 0.509.

For the sequence “GATGATTGTTCTCCCAGCTGATGAATTAAAATGATCGAGTAAACAAATTTTCCTAATCTTTCTGTTCAAGCGCCATCTAC”, the binding signal (RPM ratio (pull-down/input)) amounted to 0.255.

For the sequence “GATGATTGTTCTCCCAGCTGATGAATTTTTTCCTTCGAGTAAACAAATTTTCCTAATCTTTCTGTTCAAGCGCCATCTAC”, the binding signal (RPM ratio (pull-down/input)) was determined as 0.173.

With “GATGATTGTTCTCCCAGCTGATGAATTTTGAACCTCGAGTAAACAAATTTTCCTAATCTTTCTGTTCAAGCGCCATCTAC”, the binding signal (RPM ratio (pull-down/input)) is 0.382.

“GATGATTGTTCTCCCAGCTGATGAATTCTAAATATCGAGTAAACAAATTTTCCTAATCTTTCTGTTCAAGCGCCATCTAC”: the binding signal (RPM ratio (pull-down/input)) was 0.765.

With “GATGATTGTTCTCCCAGCTGATGAATTTGGTTCGTCGAGTAAACAAATTTTCCTAATCTTTCTGTTCAAGCGCCATCTAC”, the binding signal (RPM ratio (pull-down/input)) stood at 1.3.

As for “GATGATTGTTCTCCCAGCTGATGAATTATTTCATTCGAGTAAACAAATTTTCCTAATCTTTCTGTTCAAGCGCCATCTAC”, the binding signal (RPM ratio (pull-down/input)) is 0.381.

As for “GATGATTGTTCTCCCAGCTGATGAATTGTCCTAATCGAGTAAACAAATTTTCCTAATCTTTCTGTTCAAGCGCCATCTAC”, the binding signal (RPM ratio (pull-down/input)) worked out at 0.391.

For the sequence “GATGATTGTTCTCCCAGCTGATGAATTTTCGTACTCGAGTAAACAAATTTTCCTAATCTTTCTGTTCAAGCGCCATCTAC”, the binding signal (RPM ratio (pull-down/input)) was determined as 0.417.

Turning to “GATGATTGTTCTCCCAGCTGATGAATTCATCGCCTCGAGTAAACAAATTTTCCTAATCTTTCTGTTCAAGCGCCATCTAC”, the binding signal (RPM ratio (pull-down/input)) was found to be 0.584.

With “GATGATTGTTCTCCCAGCTGATGAATTCTCCGCGTCGAGTAAACAAATTTTCCTAATCTTTCTGTTCAAGCGCCATCTAC”, the binding signal (RPM ratio (pull-down/input)) came out at 0.372.

For “GATGATTGTTCTCCCAGCTGATGAATTAGGAGACTCGAGTAAACAAATTTTCCTAATCTTTCTGTTCAAGCGCCATCTAC”, the binding signal (RPM ratio (pull-down/input)) worked out at 0.378.

Regarding “GATGATTGTTCTCCCAGCTGATGAATTGACATAATCGAGTAAACAAATTTTCCTAATCTTTCTGTTCAAGCGCCATCTAC”, the binding signal (RPM ratio (pull-down/input)) came out at 0.677.
